Values marked as one replicate rest on one cluster of the flow cell; about a third of the high ones do not repeat.
tested on: ATP; assay: switch fluorescence ratio, 500 uM ATP over buffer (Cy3 cluster intensity, sum of 5 cycles each) (fold (ratio)); higher = stronger signal-on switching upon ATP binding; sequences stand for … in TCGTCGGCAGCGTCAGATGTGTATAAGAGACAGTTTTTTTTTTTTTTTTTTTTTTTTT…TC; settings: aptamer strand: ATP DNA aptamer (quencher-CACCTGGGGGAGTATTGCGGAGGAAGG + anchor), 100 nM annealed; ATP concentration: 500 uM; one replicate
Outline: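 Cy3-labelled switching-strand clusters on a modified Illumina MiSeq flow-cell were annealed to 100 nM quencher-labelled ATP aptamer, imaged in selection buffer, then imaged after 15 min with 500 uM ATP at 22 °C. Five buffer/ATP cycles ran, with NaOH stripping and re-annealing between them. The fluorescence ratio is summed target-cycle over summed buffer-cycle Cy3 intensity per cluster, averaged per switch-domain sequence. Clusters outside 100-1000 RFU were excluded.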
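Further: ATP exposure 15 min at 22 °C before imaging.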

Sequence	switch fluorescence ratio
TCCAGCCGTT	0.976
TCCAGCGGCA	1.07
TCCAGTGCAG	1.09
TCCAGTTCTC	1.01
TCCAGTTGTG	1.07
TCCATCACCG	1.02
TCCATCAGGA	1.03
TCCATCATCC	1.09
TCCATCCGGC	1.05
TCCATGGCGG	1.08
TCCATTAGCT	1.06
TCCATTGGAG	1.01
TCCATTTCTT	1
TCCCAAACCC	2.01
TCCCATCGAG	1
TCCCATCGTT	1.08
TCCCCAGTCG	1.89
TCCCCGTGGC	2.86
TCCCGCAAGG	2.66
TCCCGCTGGT	1.06
TCCCGTGAGC	1.11
TCCCTAAAAT	0.988
TCCCTCTCTT	1.04
TCCCTCTTTT	0.993
TCCCTGATAG	0.977

Sequence	switch fluorescence ratio
TCCCTGATCT	1.05
TCCCTGCCCC	1.15
TCCCTGTGTG	1.74
TCCCTTCGAT	1.04
TCCCTTCTTA	0.997
TCCGAAGGTG	1.07
TCCGAATCTT	0.984
TCCGAGTACG	1.3
TCCGATAATA	1.62
TCCGATACTT	1.22
TCCGCCTTCT	1.03
TCCGCTCACA	2.34
TCCGCTTTCT	2.65
TCCGGAGACA	3.2
TCCGGAGACT	2.28
TCCGGAGGGC	1.03
TCCGGATCGA	1.04
TCCGGCGTTG	1.06
TCCGGCTTCA	1.04
TCCGGGCTTA	1.19
TCCGGGGCGC	1.15
TCCGGGGGCG	0.974
TCCGGGGTCT	1.08
TCCGGGTAT	3.31
TCCGGTTTCA	1.02

Sequence	switch fluorescence ratio
TCCGTAGGGA	1.01
TCCGTAGTTG	1.61
TCCGTGAATT	1.03
TCCGTGCCGT	1.11
TCCGTTATAA	2.63
TCCGTTTCCC	1.14
TCCTACAACT	1.02
TCCTACATTG	0.997
TCCTACGTCT	1.2
TCCTAGTTGG	1.01
TCCTATGTA	1.01
TCCTCCTTAT	1.13
TCCTCGGCTT	2.48
TCCTCGTTCA	1.07
TCCTCTGGCA	3.8
TCCTGACTCC	2.75
TCCTGAGATA	1.04
TCCTGATTCG	1.03
TCCTGGAGTA	1.01
TCCTGGCACG	1.11
TCCTGGGATC	1.02
TCCTGGGCTG	1.05
TCCTGGGGAG	1.12
TCCTGGTCGG	1.01
TCCTGTCAAG	1.02

Sequence	switch fluorescence ratio
TCCTTCGGC	1.85
TCCTTGTGTA	0.994
TCGAAACACT	1.02
TCGAAATGTA	0.993
TCGAACAATT	1.04
TCGAAGCGGT	1.25
TCGAAGGTGG	0.998
TCGAATCTAG	1.04
TCGACAAGCC	1.33
TCGACAGGGC	1.03
TCGACCGCCC	2.25
TCGACCGCGT	1.2
TCGACCTGTA	1.05
TCGACGTC	1.05
TCGAGACTGT	1.01
TCGAGAGTGT	0.978
TCGAGATAGT	0.973
TCGAGATATT	1.02
TCGAGATCGT	0.954
TCGAGCGAAT	1.16
TCGAGCGAGG	0.959
TCGAGCGTCA	1.02
TCGAGCTCGG	1.02
TCGAGGATAT	1.27
TCGAGGCGCG	1.03
